Test results from the supplement of paper PMC11417369.
± gives the standard deviation of the averaged measurements. Some of the results follow.

tested on: PfAP2-LT AP2 domain (GST-tagged); experiment: gcPBM binding intensity (ln(normalized median fluorescence intensity)); higher = stronger DNA binding
Procedure, shortened: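 After 1 h on an Agilent 4 × 180k array of primer-extended double-stranded 36-bp intergenic genomic probes and negative controls, bound GST-tagged P. falciparum DNA-binding domains were detected with Alexa488 anti-GST antibody and scanned at 488 nm. The domains had been expressed in E. coli, and binding took place in 1× PBS with 1% milk, 0.2 mg/ml BSA, 0.5% salmon testes DNA and 0.03% Triton X-100. Binding intensity is the highest Masliner-normalised natural-log median intensity across replicate spots of either probe orientation.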

Sequence | gcPBM binding intensity (ln)
CAAATATATATTTATTGTACATATTGTTTATATGGT [XGTACX_site5246] | 8.87 ± 0.47
AGAAATAATATTATTCAAGTATTTATTTAATTTTCA [GTGCAC_negctrl_site475] | 8.29 ± 0.46
ATAATAACTTGTAAGGTGCATTTTATGTTTTCTTAA | 8.67 ± 0.45
CTCATCCTTACATACACACACATATATTTATTTATA [CACACA_site6202] | 9.31 ± 0.35
AAATTATAGAATCATTGTACTTTTTTTTTTTTTTTT [XGTACX_site1280] | 8.49 ± 0.52
TATGCTTCAAAATTGTGTACATATATAATATATTAT [XGTACX_site6760] | 8.84 ± 0.4
TTTTAAAACTACATTGGTACACAATAAAAAAAAAAA [XGTACX_site2793] | 8.47 ± 0.45
TCATATATATTATACACACACATATATAAATATATA [CACACA_site967] | 9.18 ± 0.3
AAAAAAAAAAAAAAAGCACACATATAAATATGAATA [CACACA_site8391] | 8.81 ± 0.53
CCATGTCAAACATTTGCACACAAAAAAATAAAAATT [CACACA_site4546] | 9.12 ± 0.52
TATATATATATATAATGTACAAACTCCTTTATATAT [XGTACX_site4545] | 9.05 ± 0.2
AGGTTGAATATATATTTGTGATTATATTATTTTATT [CACACA_negctrl_site778] | 8.77 ± 0.34
TCATTCAAAAAAAATCAACACACAGTTACATAGCTC [CACACA_site8700] | 8.93 ± 0.3
GTTTTTTTTATATATTGTACAAATAATATATTATAT [XGTACX_site29] | 8.89 ± 0.4
TTATTTAAACAAATCACACACAAATATAAATACATA [CACACA_site5158] | 9.11 ± 0.39
AACACCAAACTAAATGTACACACATACATAAATATA [CACACA_site8298] | 9.34 ± 0.46
AATATAAACACAAACACACACATATATATATATATA [CACACA_site4307] | 10 ± 0.28
TAAAATTATGTAATAACACACATATACAATACATAT [CACACA_site1236] | 9 ± 0.38
GAAAATTCATAAAAATGTACTTATTATATTATTTAT [XGTACX_site2169] | 8.38 ± 0.47
GATATATAACTTTTAACACACAAAAAAAAAAAAAAT [CACACA_site7653] | 8.94 ± 0.57
TTATGAATATTGATGTATAAAAAAATATATATGTTA [XGTACX_negctrl_site390] | 8.35 ± 0.51
AAAGGTTTGCGTTGTGTGCACAAAATAAATATATAA | 9.29 ± 0.38
AAAAAAATTTTAAAATGTACAAATTTTAATATATAT [XGTACX_site7628] | 8.47 ± 0.45

Sequence | gcPBM binding intensity (ln)
TTTTCAAAAATATACACACACATAAATATATGTATA [CACACA_site777] | 9.15 ± 0.23
TTTTTTATTTAAAGTAGTACTTTTTAGAAAACAAAA [XGTACX_site6759] | 7.9 ± 0.48
ATTCTAAATATGTATATACACACTTTTAATATTCAT [CACACA_site4118] | 9.04 ± 0.4
TTTATGAAACAGTGCACACATAAAAATAAATACATA [CACACA_site5631] | 9.12 ± 0.42
TTATTTTAAATTAACACATGCATAATATATGTATAT [TGCATGCA_site597] | 8.54 ± 0.35
ATATATACCTATAACACACACATATTTATATTTATA [CACACA_site7257] | 9.24 ± 0.24
TATAAATCAATATGTACACACATATACATGTTGAAT [CACACA_site7460] | 9.04 ± 0.41
TAATAAAAAAAGTGCACACACATAATATATATATAT [CACACA_site3340] | 9.47 ± 0.3
TTAGCAACTATTACTACACACATTTTTATATAATTT [CACACA_site1372] | 8.93 ± 0.45
CATATAATATATCAATGTACATATATATTTTATAAA [XGTACX_site5901] | 8.6 ± 0.37
ATTGTCAAAACACGCACACACATATACATAATAACA [CACACA_site1742] | 9.65 ± 0.37
ATTATATACATATATATTGTATATACTATACATATG [XGTACX_negctrl_site545] | 8.84 ± 0.49
TCCTTGTTTGGTTTTTTTTTTTCTTCTTTTTTTTTT [CACACA_negctrl_site1355] | 8.77 ± 0.6
ACACATACACATTAGGTGCACATAATTCAATATTAC [GTGCAC_site9862] | 9.26 ± 0.51
TTAAATGTTATATATTGTACATATAATATATGTATT [XGTACX_site1492] | 8.73 ± 0.46
TATGAAACGATATATGTGCACATGAGGGAATATAGA [GTGCAC_site9611] | 9.22 ± 0.42
AAAAAACATACATACACACACATAAATATATATATT [CACACA_site2699] | 9.59 ± 0.18
ATATATATATAAAGGAGTACATACATTAAAAAAAAA [XGTACX_site1095] | 8.86 ± 0.54
TCTTATTTAAAAATAGCACACATTATATATATATAT [CACACA_site8916] | 8.91 ± 0.53
TTTTGAGAATATATGGGTACAAATAAATAAAAATAT [XGTACX_site1933] | 8.59 ± 0.54
TTTTCTATTTAATTGGTGCACTGATATATACACATA [GTGCAC_site9533] | 8.88 ± 0.43
AGGTTAAAAATAAATACACACATTTGATGTCTGTAT [CACACA_site6596] | 9.07 ± 0.26
TTATGTTATATATACACACACAAAAGAAAAAAAAAA [CACACA_site2987] | 9.16 ± 0.38

Sequence | gcPBM binding intensity (ln)
ATATAACATATTAATAATATATTTATAATATGTTTA [GTGCAC_negctrl_site168] | 8.33 ± 0.41
TCTTATAACAAAAAAAAATAAAAAATAAAACTATAT [GTGCAC_negctrl_site11] | 8.46 ± 0.44
CATATAAATAGACACACACACACATATAAATAAATA [CACACA_site7156] | 10.1 ± 0.4
AAATTTAAATAATGTGCGCATCTTAATATATATAAG [GTGCAC_site9890] | 8.8 ± 0.44
AAATAATATTGAAAAGTGCATATTTTTGTTGATATA | 8.59 ± 0.44
AAAAGGTGGAAAAATGCATGCAGGCTATTCTATATA [TGCATGCA_site1034] | 9.1 ± 0.38
AATTACATATAATACTGTACGCTAATAAGAAAAAAA [XGTACX_site7413] | 8.76 ± 0.47
TTCCACCAATATATATGTACTTATAATATATATATA [XGTACX_site8700] | 8.64 ± 0.42
AAAAAACACGGACACACACACATATACATACATACA [CACACA_site5470] | 9.98 ± 0.41
AATATAAATAATGTTAAACACACATACCGATATATA [CACACA_site8869] | 9.02 ± 0.45
ATTTATAGAGCTATATGTACATATATATATATTATT [XGTACX_site3704] | 9.02 ± 0.42
AACGCTTATTAGTTGTTGTATATGTGTTCACATATT [CACACA_negctrl_site379] | 8.96 ± 0.4
ATATAAATAAAGAAATATATATATATATATATATAT [GTGCAC_negctrl_site668] | 9.6 ± 0.099
ATATATATGTATATAACATGCAACATTTAATAATAA [TGCATGCA_site1018] | 8.95 ± 0.41
ATAAAAGATTTATACATACACACATATTATATTCAC [CACACA_site3714] | 9.02 ± 0.42
TTTTTTTTTTTTTTTTAACACACATATATATATTTT [CACACA_site8585] | 8.7 ± 0.47
GATCTATTGAGTGATACATGCAGGAAAATTAAAAAC [TGCATGCA_site729] | 8.8 ± 0.48
TATGTATGTATGTATGTATGCATGTCTAACACCTAA [TGCATGCA_site360] | 9.04 ± 0.26
TTTTTTTTTTTATGCTCACACATTAATTTTTATACA [CACACA_site4527] | 8.71 ± 0.49
TTTTTATTATAAGGTCGTACAATTGTAATTATTGTA [XGTACX_site1413] | 8.61 ± 0.42
AAAAAGAAAAAAGAAAGTACAAATATACACATTTTT [XGTACX_site3343] | 8.73 ± 0.46
TCATAGCTAGGATAACGTACAGAAAAGTGAAAAATT [XGTACX_site3322] | 8.99 ± 0.47
ACACATGTATTTGGTGCATGTTGTTAAAAAAATATT [TGCATGCA_site795] | 8.89 ± 0.3

Sequence | gcPBM binding intensity (ln)
TTTTTTTTTTGTTGTTGTACTCTTATATTTTTATAT [XGTACX_site6178] | 9.01 ± 0.52
ATTCTAGTAATATATGTATATTTATATATGTATGTG [XGTACX_negctrl_site419] | 8.86 ± 0.38
TTTAATTAAATATGTATATATATTCATGTATGTATA [GTGCAC_negctrl_site14] | 8.6 ± 0.38
CATATACAGAAACACACACACACATAAATAAATATA [CACACA_site1343] | 10 ± 0.36
AGTAGATATAAAAGGAGTACACATATATATATAAAT [XGTACX_site4375] | 9.12 ± 0.5
AAAAAAAAAAGACACACACACATATTTATTTATATA [CACACA_site6484] | 9.67 ± 0.4
AATATATAAGTGTTGTGTACTAAAGTATTTTCCTAT [XGTACX_site1622] | 8.8 ± 0.4
TTTCCGTATAATTTTGCACACGAATATAAATTTGAT [CACACA_site137] | 9 ± 0.4
ATAGTATCTGGTAGCTGTACGAGTCGTATAGTGCAG [XGTACX_site2542] | 8.88 ± 0.45
ATAGTTTTACACATTTGTACATAATTTACAACAAAA [XGTACX_site25] | 8.57 ± 0.41
TTTAATCAAATTAAAAGTACAGAATTGTTCATGTAG [XGTACX_site1229] | 8.53 ± 0.3
ATATATATATATTCCACACACACACTAATAAAAAAA [CACACA_site9214] | 9.65 ± 0.26
AAAAAATATTATATATGTACATAATATTTTTTTTTT [XGTACX_site5909] | 8.43 ± 0.42
TGTTTTTGTGATCATATGAAAAAATTACCTACAAGG [CACACA_negctrl_site279] | 8.45 ± 0.4
TATATATATATATATACATGCATATTTTTTATTTTT [TGCATGCA_site464] | 9.62 ± 0.13
TTTTTTATATATATTTGTACATATTGCATGTTCCCT [XGTACX_site7143] | 8.95 ± 0.63
TGTCTTATATATATTACACACTATATGAAAAAATAT [CACACA_site1487] | 8.66 ± 0.37
TATATTTATCTGATAACACACATAAATTAGACATTT [CACACA_site6887] | 8.62 ± 0.38
TAATTTAATAATTAGACACACATGTCTAAAATAAAA [CACACA_site2527] | 8.46 ± 0.6
TAAAGTATTACAACCACACACACACCGATATATTAT [CACACA_site9382] | 9.85 ± 0.15
